Results are given in words; binding and its absence hold for the method and conditions named. In cells and extracts the contact can be indirect. Some entries that bind do so weakly or less than the wild type. For some assays here: Sequences can lack the tags named with a protein. Values belong to the molecule of their own block, whether it stands above or below them.
How the values were obtained:
[1] = biological target: T1, HA-ZNF281 (wild type, transfected) (UniProt Q9Y2X9); test: co-IP; co-transfection of GSK-3β or GSK-3α with ZNF281, co-IP and Western blotting; cell line not stated for this experiment
T1 sequence: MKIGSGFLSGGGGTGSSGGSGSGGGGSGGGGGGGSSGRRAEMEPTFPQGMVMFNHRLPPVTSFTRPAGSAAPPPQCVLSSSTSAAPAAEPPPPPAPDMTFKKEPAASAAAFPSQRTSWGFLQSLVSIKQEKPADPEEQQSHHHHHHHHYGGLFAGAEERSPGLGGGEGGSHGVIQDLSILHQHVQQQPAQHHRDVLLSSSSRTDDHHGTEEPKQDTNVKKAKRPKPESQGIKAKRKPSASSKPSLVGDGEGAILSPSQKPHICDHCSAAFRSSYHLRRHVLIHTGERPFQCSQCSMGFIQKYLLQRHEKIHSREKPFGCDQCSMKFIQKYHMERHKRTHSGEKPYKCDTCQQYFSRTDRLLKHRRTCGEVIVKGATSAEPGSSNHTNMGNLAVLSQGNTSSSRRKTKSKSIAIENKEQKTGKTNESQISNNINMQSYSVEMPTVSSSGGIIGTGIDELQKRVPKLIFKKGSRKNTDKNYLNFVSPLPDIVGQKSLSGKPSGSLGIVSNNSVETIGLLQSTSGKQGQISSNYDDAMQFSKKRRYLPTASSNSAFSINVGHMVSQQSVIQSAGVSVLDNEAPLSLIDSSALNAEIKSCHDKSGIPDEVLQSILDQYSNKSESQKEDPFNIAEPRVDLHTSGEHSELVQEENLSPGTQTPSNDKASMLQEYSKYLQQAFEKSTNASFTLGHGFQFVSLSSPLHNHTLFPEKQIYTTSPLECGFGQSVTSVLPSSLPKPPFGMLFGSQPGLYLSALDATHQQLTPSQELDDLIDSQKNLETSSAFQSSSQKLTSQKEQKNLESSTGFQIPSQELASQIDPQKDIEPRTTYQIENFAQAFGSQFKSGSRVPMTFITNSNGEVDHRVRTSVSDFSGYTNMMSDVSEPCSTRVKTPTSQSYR

Protein sequences, listed by entry. Tags and fused reporters are not part of them.
UniProt Q9UKB1: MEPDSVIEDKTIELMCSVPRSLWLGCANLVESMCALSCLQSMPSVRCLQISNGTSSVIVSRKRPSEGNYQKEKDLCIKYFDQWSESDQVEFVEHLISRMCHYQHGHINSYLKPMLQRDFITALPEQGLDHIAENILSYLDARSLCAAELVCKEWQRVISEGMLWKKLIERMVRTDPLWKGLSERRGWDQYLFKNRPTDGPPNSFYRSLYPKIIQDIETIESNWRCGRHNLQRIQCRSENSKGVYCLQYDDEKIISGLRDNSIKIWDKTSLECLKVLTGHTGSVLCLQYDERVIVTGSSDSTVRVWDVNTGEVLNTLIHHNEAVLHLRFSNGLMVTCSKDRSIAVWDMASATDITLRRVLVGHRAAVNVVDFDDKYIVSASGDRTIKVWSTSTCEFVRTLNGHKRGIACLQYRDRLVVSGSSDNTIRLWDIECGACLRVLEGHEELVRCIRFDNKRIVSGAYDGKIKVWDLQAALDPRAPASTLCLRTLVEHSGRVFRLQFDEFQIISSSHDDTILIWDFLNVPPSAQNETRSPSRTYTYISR
UniProt P49840: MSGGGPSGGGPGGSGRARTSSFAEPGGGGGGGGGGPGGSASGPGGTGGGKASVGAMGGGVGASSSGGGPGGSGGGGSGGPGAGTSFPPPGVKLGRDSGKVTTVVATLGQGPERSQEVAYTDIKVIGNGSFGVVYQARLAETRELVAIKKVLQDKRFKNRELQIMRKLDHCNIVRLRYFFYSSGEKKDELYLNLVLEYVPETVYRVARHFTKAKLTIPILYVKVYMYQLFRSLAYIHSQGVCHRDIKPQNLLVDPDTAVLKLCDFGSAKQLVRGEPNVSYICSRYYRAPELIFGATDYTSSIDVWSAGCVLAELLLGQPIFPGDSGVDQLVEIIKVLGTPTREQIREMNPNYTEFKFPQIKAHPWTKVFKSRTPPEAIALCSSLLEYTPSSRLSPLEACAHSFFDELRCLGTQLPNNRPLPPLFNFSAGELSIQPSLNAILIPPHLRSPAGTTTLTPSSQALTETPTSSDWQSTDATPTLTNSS
UniProt P49841: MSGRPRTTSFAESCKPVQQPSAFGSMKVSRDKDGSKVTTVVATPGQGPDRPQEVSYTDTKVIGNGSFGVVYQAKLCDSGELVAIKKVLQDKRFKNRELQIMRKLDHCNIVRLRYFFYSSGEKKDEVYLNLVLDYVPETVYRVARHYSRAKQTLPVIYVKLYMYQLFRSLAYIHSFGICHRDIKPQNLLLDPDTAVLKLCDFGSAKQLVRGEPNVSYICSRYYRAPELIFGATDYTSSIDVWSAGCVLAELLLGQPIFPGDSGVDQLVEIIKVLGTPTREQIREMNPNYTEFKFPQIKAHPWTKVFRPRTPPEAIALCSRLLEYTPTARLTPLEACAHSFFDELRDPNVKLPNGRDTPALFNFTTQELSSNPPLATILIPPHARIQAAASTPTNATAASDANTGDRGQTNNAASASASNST

[2] = biological target: T2, Zinc finger protein 281 (ZNF281), endogenous (human (endogenous in HCT116)) (UniProt Q9Y2X9); test: co-IP; endogenous proteins in total lysates of HCT116 cells, IP with the indicated antibody (anti-ZNF281 or reciprocal), immunoblotting; rabbit IgG as IP negative control
T2 sequence: T1 sequence

[3] = biological target: β-transducin repeat-containing protein 2 (β-TrCP2), endogenous (human (endogenous in HCT116)) (UniProt Q9UKB1); test: as above
[4] = biological target: Flag-β-TrCP2 (transfected) (UniProt Q9UKB1); test: co-IP; HCT116 cells co-transfected with ZNF281 and β-TrCP2 constructs, lysed after 48 h in IP buffer (20 mM HEPES pH 7.6, 0.5% Triton X-100, 150 mM NaCl), protein A-Sepharose and 1 μg antibody, Western blotting; in Figure 7A cells treated with MG132 (10 μM) for 10 h and Flag-β-TrCP2 immunoprecipitated

binding [1]: no binding
Molecule: Glycogen synthase kinase 3α (GSK-3α), transfected (from UniProt P49840 1-483) (enzyme)

binding [2]: binds
Molecule: Glycogen synthase kinase 3β (GSK-3β), endogenous (from UniProt P49841 1-420) (enzyme)

binding [1]: binds
Molecule: Glycogen synthase kinase 3β (GSK-3β), wild type, transfected (from UniProt P49841 1-420) (enzyme)

binding [3]: binds
B1: Zinc finger protein 281 (ZNF281), endogenous (protein, UniProt Q9Y2X9 1-895)
chain: T1 sequence

binding [4]: binds
B2: HA-ZNF281 (wild type, transfected) (protein, UniProt Q9Y2X9 1-895)
chain: T1 sequence
